Some of the results follow.
How the values were obtained:
Experiment in all cases: glycan array binding signal (z-score within array); higher = stronger binding
Settings in all cases: glycan notation: IUPAC condensed, linker removed
[1] = biological target: Gal(b1-3)GalNAc
Procedure, shortened: (§1)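 Glycan array binding is given as a within-array Z-score, which can be read as non-binding when negative. The arrays, 3228 of them, came from the Consortium for Functional Glycomics database and were retained only where the protein sequence was available. Z-scores were averaged across arrays of the same protein sequence at different concentrations or buffers and across linkers.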

[2] = biological target: Gal(b1-3)GalNAc(a1-3)[Fuc(a1-2)]Gal(b1-4)Glc
Procedure, shortened: as §1

[3] = biological target: Gal(b1-3)GalNAc(a1-3)[Fuc(a1-2)]Gal(b1-4)GlcNAc
Procedure, shortened: as §1

[4] = biological target: Gal(b1-3)GalNAc(b1-3)Gal(a1-4)Gal(b1-4)Glc
Procedure, shortened: as §1

[5] = biological target: Gal(b1-3)GalNAc(b1-4)Gal(b1-4)Glc
Procedure, shortened: as §1

[6] = biological target: Gal(b1-3)GalNAc(b1-4)[Neu5Ac(a2-3)]Gal(b1-4)Glc
Procedure, shortened: as §1

[7] = biological target: Gal(b1-3)GlcNAc
Procedure, shortened: as §1

[8] = biological target: Gal(b1-3)GlcNAc(a1-6)Gal(b1-4)GlcNAc
Procedure, shortened: as §1

[9] = biological target: Gal(b1-3)GlcNAc(b1-2)Man(a1-3)[Gal(b1-3)GlcNAc(b1-2)Man(a1-6)]Man(b1-4)GlcNAc(b1-4)GlcNAc
Procedure, shortened: as §1

[10] = biological target: Gal(b1-3)GlcNAc(b1-2)Man(a1-3)[Gal(b1-3)GlcNAc(b1-2)Man(a1-6)]Man(b1-4)GlcNAc(b1-4)[Fuc(a1-6)]GlcNAc
Procedure, shortened: as §1

[11] = biological target: Gal(b1-3)GlcNAc(b1-2)[Gal(b1-3)GlcNAc(b1-6)]Man(a1-6)[Gal(b1-3)GlcNAc(b1-2)Man(a1-3)]Man(b1-4)GlcNAc(b1-4)GlcNAc
Procedure, shortened: as §1

[12] = biological target: Gal(b1-3)GlcNAc(b1-3)Gal(b1-3)GlcNAc
Procedure, shortened: as §1

[13] = biological target: Gal(b1-3)GlcNAc(b1-3)Gal(b1-4)Glc
Procedure, shortened: as §1

[14] = biological target: Gal(b1-3)GlcNAc(b1-3)Gal(b1-4)GlcNAc
Procedure, shortened: as §1

[15] = biological target: Gal(b1-3)GlcNAc(b1-3)Gal(b1-4)GlcNAc(b1-6)[Gal(b1-3)GlcNAc(b1-3)]Gal(b1-4)Glc
Procedure, shortened: as §1

[16] = biological target: Gal(b1-3)GlcNAc(b1-3)Gal(b1-4)[Fuc(a1-3)]GlcNAc(b1-6)[Gal(b1-3)GlcNAc(b1-3)]Gal(b1-4)Glc
Procedure, shortened: as §1

[17] = biological target: Gal(b1-3)GlcNAc(b1-3)GalNAc
Procedure, shortened: as §1

[18] = biological target: Gal(b1-3)GlcNAc(b1-6)Gal(b1-4)GlcNAc
Procedure, shortened: as §1

[19] = biological target: Gal(b1-3)[Fuc(a1-4)]GlcNAc
Procedure, shortened: as §1

[20] = biological target: Gal(b1-3)[Fuc(a1-4)]GlcNAc(b1-2)Man(a1-3)[Gal(b1-3)[Fuc(a1-4)]GlcNAc(b1-2)Man(a1-6)]Man(b1-4)GlcNAc(b1-4)GlcNAc
Procedure, shortened: as §1

[21] = biological target: Gal(b1-3)[Fuc(a1-4)]GlcNAc(b1-2)Man(a1-3)[Gal(b1-3)[Fuc(a1-4)]GlcNAc(b1-2)Man(a1-6)]Man(b1-4)GlcNAc(b1-4)[Fuc(a1-6)]GlcNAc
Procedure, shortened: as §1

[22] = biological target: Gal(b1-3)[Fuc(a1-4)]GlcNAc(b1-3)Gal(b1-3)[Fuc(a1-4)]GlcNAc
Procedure, shortened: as §1

[23] = biological target: Gal(b1-3)[Fuc(a1-4)]GlcNAc(b1-3)Gal(b1-4)GlcNAc
Procedure, shortened: as §1

[24] = biological target: Gal(b1-3)[Fuc(a1-4)]GlcNAc(b1-3)Gal(b1-4)[Fuc(a1-3)]GlcNAc
Procedure, shortened: as §1

[25] = biological target: Gal(b1-3)[GlcNAc(b1-6)]GalNAc
Procedure, shortened: as §1

[26] = biological target: Gal(b1-3)[Neu5Ac(a2-6)]GalNAc
Procedure, shortened: as §1

[27] = biological target: Gal(b1-3)[Neu5Ac(a2-6)]GlcNAc(b1-6)Gal(b1-4)Glc
Procedure, shortened: as §1

[28] = biological target: Gal(b1-3)[Neu5Ac(b2-6)]GalNAc
Procedure, shortened: as §1

[29] = biological target: Gal(b1-4)Gal
Procedure, shortened: as §1

[30] = biological target: Gal(b1-4)GalNAc(a1-3)[Fuc(a1-2)]Gal(b1-4)GlcNAc
Procedure, shortened: as §1

[31] = biological target: Gal(b1-4)GalNAc(b1-3)[Fuc(a1-2)]Gal(b1-4)GlcNAc
Procedure, shortened: as §1

[32] = biological target: Gal(b1-4)Glc
Procedure, shortened: as §1

[33] = biological target: Gal(b1-4)Glc6S
Procedure, shortened: as §1

[34] = biological target: Gal(b1-4)GlcNAc
Procedure, shortened: as §1

[35] = biological target: Gal(b1-4)GlcNAc(a1-6)Gal(b1-4)GlcNAc
Procedure, shortened: as §1

[36] = biological target: Gal(b1-4)GlcNAc(b1-2)Man(a1-3)Man(b1-4)GlcNAc(b1-4)GlcNAc
Procedure, shortened: as §1

[37] = biological target: Gal(b1-4)GlcNAc(b1-2)Man(a1-3)[Gal(b1-4)GlcNAc(b1-2)Man(a1-6)]Man(b1-4)GlcNAc(b1-4)GlcNAc
Procedure, shortened: as §1

[38] = biological target: Gal(b1-4)GlcNAc(b1-2)Man(a1-3)[Gal(b1-4)GlcNAc(b1-2)Man(a1-6)]Man(b1-4)GlcNAc(b1-4)[Fuc(a1-6)]GlcNAc
Procedure, shortened: as §1

[39] = biological target: Gal(b1-4)GlcNAc(b1-2)Man(a1-3)[Gal(b1-4)GlcNAc(b1-2)][GlcNAc(b1-4)]Man(b1-4)GlcNAc(b1-4)GlcNAc
Procedure, shortened: as §1

[40] = biological target: Gal(b1-4)GlcNAc(b1-2)Man(a1-3)[GlcNAc(b1-2)Man(a1-6)]Man(b1-4)GlcNAc(b1-4)GlcNAc
Procedure, shortened: as §1

[41] = biological target: Gal(b1-4)GlcNAc(b1-2)Man(a1-3)[Man(a1-6)]Man(b1-4)GlcNAc(b1-4)GlcNAc
Procedure, shortened: as §1

[42] = biological target: Gal(b1-4)GlcNAc(b1-2)Man(a1-6)Man(b1-4)GlcNAc(b1-4)GlcNAc
Procedure, shortened: as §1

[43] = biological target: Gal(b1-4)GlcNAc(b1-2)Man(a1-6)[GlcNAc(b1-2)Man(a1-3)]Man(b1-4)GlcNAc(b1-4)GlcNAc
Procedure, shortened: as §1

[44] = biological target: Gal(b1-4)GlcNAc(b1-2)Man(a1-6)[Man(a1-3)]Man(b1-4)GlcNAc(b1-4)GlcNAc
Procedure, shortened: as §1

[45] = biological target: Gal(b1-4)GlcNAc(b1-2)[Gal(b1-4)GlcNAc(b1-4)]Man(a1-3)[Gal(b1-4)GlcNAc(b1-2)Man(a1-6)]Man(b1-4)GlcNAc(b1-4)GlcNAc
Procedure, shortened: as §1

B1: Tectonin 2 (Laccaria bicolor) (protein)
chain: MPWKGISGSLSRISAGSVTNVWGVNAANNIYRYTGDDAKPWVQIPGALTDIGAAADGTVWGVNAAGNIYRYVWDSNHWTQIKGALKRISAGSRTNVWGVNAGGAIYRYTGDDANPWVQIPGVLSDIGAGADGTVWGVNAAGEIYRYTGDQGDPNHWVKIPGALSAISAGIKTNVWGVNSANNIYTSTGDDKNPWLGIGGSLVDIGAGTDGVVWGVNAGGGIYRWIRD
glycan array binding signal (z-score) [1]: -0.212
glycan array binding signal (z-score) [2]: -0.46
glycan array binding signal (z-score) [3]: -0.491
glycan array binding signal (z-score) [4]: -0.435
glycan array binding signal (z-score) [5]: -0.123
glycan array binding signal (z-score) [6]: -0.063
glycan array binding signal (z-score) [7]: -0.346
glycan array binding signal (z-score) [8]: -0.48
glycan array binding signal (z-score) [9]: 0.354
glycan array binding signal (z-score) [10]: -0.097
glycan array binding signal (z-score) [11]: -0.307
glycan array binding signal (z-score) [12]: -0.474
glycan array binding signal (z-score) [13]: -0.339
glycan array binding signal (z-score) [14]: -0.322
glycan array binding signal (z-score) [15]: -0.403
glycan array binding signal (z-score) [16]: -0.361
glycan array binding signal (z-score) [17]: -0.237
glycan array binding signal (z-score) [18]: -0.314
glycan array binding signal (z-score) [19]: -0.348
glycan array binding signal (z-score) [20]: 0.835
glycan array binding signal (z-score) [21]: 0.239
glycan array binding signal (z-score) [22]: -0.42
glycan array binding signal (z-score) [23]: -0.217
glycan array binding signal (z-score) [24]: -0.39
glycan array binding signal (z-score) [25]: -0.144
glycan array binding signal (z-score) [26]: -0.116
glycan array binding signal (z-score) [27]: -0.414
glycan array binding signal (z-score) [28]: -0.312
glycan array binding signal (z-score) [29]: -0.475
glycan array binding signal (z-score) [30]: -0.003
glycan array binding signal (z-score) [31]: -0.107
glycan array binding signal (z-score) [32]: -0.333
glycan array binding signal (z-score) [33]: -0.111
glycan array binding signal (z-score) [34]: -0.381
glycan array binding signal (z-score) [35]: -0.389
glycan array binding signal (z-score) [36]: -0.226
glycan array binding signal (z-score) [37]: -0.261
glycan array binding signal (z-score) [38]: 0.314
glycan array binding signal (z-score) [39]: -0.425
glycan array binding signal (z-score) [40]: -0.362
glycan array binding signal (z-score) [41]: -0.092
glycan array binding signal (z-score) [42]: 0.217
glycan array binding signal (z-score) [43]: -0.451
glycan array binding signal (z-score) [44]: -0.487
glycan array binding signal (z-score) [45]: -0.307
